Reference: PMC5836133
This is one part of the list. At the low end of the ranking the order means little.

System: T1, GST-NbGlk1(82-244)
T1 sequence: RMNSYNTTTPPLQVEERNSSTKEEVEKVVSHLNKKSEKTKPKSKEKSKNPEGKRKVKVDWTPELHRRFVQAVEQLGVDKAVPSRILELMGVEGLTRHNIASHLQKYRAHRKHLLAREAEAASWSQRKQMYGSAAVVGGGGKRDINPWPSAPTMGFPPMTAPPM
Assay: protein-binding microarray;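 note: rank-based score ranging −0.5 to +0.5 with E above 0.45 taken as significant binding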
Settings: NbGlk1 is a Golden2-like transcription factor of Nicotiana benthamiana; high values mean tight binding; most listed sequences are background and not binding sites; double strand, one strand shown

| Sequence | binding signal [E-score] |
| --- | --- |
| CAACCAAC | -0.0866 |
| ACACTTCA | -0.0144 |
| CAAACCGC | -0.118 |
| AAACACGC | -0.105 |
| AAGCGCTT | -0.0684 |
| AATGATCT | 0.108 |
| AGTCCATA | -0.118 |
| ACGCACGC | -0.0789 |
| AAGTTACT | -0.0417 |
| AAACTCCT | -0.141 |
| CACCGGAG | -0.0961 |
| CAACAAAC | 0.13 |
| AACCTCCG | -0.312 |
| AACTATAT | 0.0441 |
| CACATACA | 0.185 |
| AAACTCAA | 0.138 |
| ACGCGTTA | -0.0152 |
| AGCCCCGA | -0.118 |
| AACAACAG | -0.125 |
| AAGGGGCT | -0.307 |
| ACGCGCTA | -0.0689 |
| ACTTGCGC | 0.0185 |

| Sequence | binding signal [E-score] |
| --- | --- |
| AGGAGTTC | -0.0812 |
| ATGAAATA | 0.184 |
| ACTGATTA | 0.264 |
| ATGATGTA | 0.0732 |
| ACAAACTC | -0.0448 |
| AGGAGCCT | -0.391 |
| AGGCTGCG | -0.232 |
| AGATGAAC | -0.0693 |
| ATACCCGG | -0.0781 |
| ACACTCAC | -0.108 |
| AACCTGAG | -0.0478 |
| ACCGTCCA | -0.1 |
| ACGTTGTA | -0.038 |
| AGAGCCAG | -0.169 |
| AGAATTAT | 0.127 |
| ATCCCCAC | 0.195 |
| ATCTCATG | 0.318 |
| ACCCAACG | -0.0017 |
| ATGCGTCC | -0.192 |
| ACGGGTAC | -0.213 |
| ATAGCATC | 0.0837 |
| ATAGTAGG | 0.0649 |

| Sequence | binding signal [E-score] |
| --- | --- |
| ATGATACG | 0.162 |
| ATACCAGA | -0.0668 |
| ACCCCGAG | -0.174 |
| AGTGAGAC | -0.138 |
| AAGTTGAC | 0.0279 |
| AGAACCTC | -0.216 |
| AGACCTTC | -0.266 |
| AAGGTGTG | -0.129 |
| ACGCGCAT | 0.00943 |
| ACGTTCGC | -0.177 |
| ATAAGAAT | 0.299 |
| AATTACTA | 0.153 |
| ATGTCTGG | -0.186 |
| AACAACAT | 0.0487 |
| AGATCATA | 0.127 |
| ATTTAAGA | 0.236 |
| CAACACGG | -0.0848 |
| CACGATCC | 0.194 |
| ATCGCGAT | 0.424 |
| AGTACGAG | 0.0135 |
| ACACAGCT | -0.119 |
| CAGATGAG | -0.151 |

| Sequence | binding signal [E-score] |
| --- | --- |
| AGGAAACA | -0.00589 |
| ACATCAGC | -0.0142 |
| AAAAAATC | 0.439 |
| ACTGGAGG | -0.105 |
| ATAAAAGG | -0.13 |
| AAAGGATC | 0.182 |
| AGATCCGG | 0.291 |
| AAACAAGT | 0.0342 |
| AGCTGCTA | -0.298 |
| ACACGAAG | -0.0851 |
| ACCCTGTC | -0.287 |
| ACCAGGCA | -0.305 |
| ACTGTTTA | -0.0696 |
| CAAAAGTC | -0.123 |
| ATCGCAGG | 0.0895 |
| AACTTATG | -0.0125 |
| AAACGCTT | -0.0618 |
| CACGTGGA | 0.0123 |
| AGCCACAG | -0.195 |
| AGGACCAC | -0.235 |
